Molecules are shown by their SMILES. The campaign covered roughly 110,000 compounds. About 230 (0.21%) showed an effect of 50% or more. This is one part of the list.
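Further: 30 min substrate incubation versus DMSO and 10 µM JCP410 controls.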

Chain of DPAP1 (Q8IIJ9 whole entry, looked up): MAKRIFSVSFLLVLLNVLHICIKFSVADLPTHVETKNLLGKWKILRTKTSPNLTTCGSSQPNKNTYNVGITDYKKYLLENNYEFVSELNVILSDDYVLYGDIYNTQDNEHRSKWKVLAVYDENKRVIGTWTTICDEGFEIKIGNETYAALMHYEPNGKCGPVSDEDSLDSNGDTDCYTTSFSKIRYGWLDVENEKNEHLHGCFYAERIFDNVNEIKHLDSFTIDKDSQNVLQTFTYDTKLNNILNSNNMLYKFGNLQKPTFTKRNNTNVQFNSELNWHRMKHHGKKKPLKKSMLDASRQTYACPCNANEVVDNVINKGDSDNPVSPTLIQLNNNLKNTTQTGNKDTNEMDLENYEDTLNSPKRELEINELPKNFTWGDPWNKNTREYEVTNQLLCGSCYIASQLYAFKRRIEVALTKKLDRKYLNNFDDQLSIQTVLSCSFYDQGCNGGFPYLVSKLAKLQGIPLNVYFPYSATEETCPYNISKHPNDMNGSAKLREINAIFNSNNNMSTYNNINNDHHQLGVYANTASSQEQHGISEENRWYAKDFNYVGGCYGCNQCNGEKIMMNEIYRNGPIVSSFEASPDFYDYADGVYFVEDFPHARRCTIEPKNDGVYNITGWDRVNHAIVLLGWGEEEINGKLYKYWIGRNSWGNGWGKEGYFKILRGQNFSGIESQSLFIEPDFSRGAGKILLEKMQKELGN

The experiment has as its target DPAP1 (Plasmodium falciparum, UniProt Q8IIJ9). The experiment in a line: primary screen, percent inhibition; read by cleavage of a fluorogenic dipeptide substrate; higher = more effect of the substance. Details: species or system P. falciparum D10 trophozoite lysates; single well.
As to `CCOC1(C(F)(F)F)NC(=O)N(Cc2ccc(OC)cc2)C1=O` (stereo not shown), the “% Inhibition @ 10 uM” value is reported as -2.72%.

On to `Oc1ccc(CN2CCc3ccccc3C2)cc1`, for which the “% Inhibition @ 10 uM” value was -3.56%. Consider `CN(C)CC(C)(C)CNC1CCN(C)CC1`, for which the “% Inhibition @ 10 uM” value worked out at 2.94%.

`CC(C)CCNC(=O)CCn1nc(-c2ccccc2)ccc1=O`: the “% Inhibition @ 10 uM” value is -3.58%. Then `Cn1c(SCC(=O)c2ccc(Br)cc2)nc2sc3c(c2c1=O)C(C(=O)O)CC3` (stereo not shown), with 3.72%.

With `CCOC(=O)c1c(C)[nH]c(NC(=O)N2CCN(C(=O)c3ccco3)CC2)c1C`, the “% Inhibition @ 10 uM” value was 4.18%. Then `CCOC(=O)c1c(C)n(-c2ccc(C)cc2)c2ccc(OCC(O)CNC(CO)(CO)CO)cc12` (stereo not shown), with 3.06%; and `CCOC(=O)c1cc2c(=O)n3ccccc3nc2n(CCCOC)c1=N`, with -9.1%; and `CN1CCN(CCCc2ccccc2)CC1`, with -2.34%. For the molecule `CCCNC(=O)CN1C(=O)c2ccccc2Sc2ncccc21`, the “% Inhibition @ 10 uM” value is on record as -12.9%.

For `Cc1oc2ccc(O)c(CN3CC4(C)CC3CC(C)(C)C4)c2c1C(=O)NCc1ccccc1` (stereo not shown), the “% Inhibition @ 10 uM” value was determined as 0.486%.

On to `COCCNC(=O)CNC(=S)N(Cc1ccc(F)cc1)C1CCCCC1`, for which the “% Inhibition @ 10 uM” value was found to be 4.47%.

Regarding `CCCC(=O)N(c1ccc2oc(C)c(C(C)=O)c2c1)S(=O)(=O)c1ccc(F)cc1`, the “% Inhibition @ 10 uM” value is on record as -7.83%.

Regarding `Cc1cc(C)cc(NC(=O)Cc2ccccc2)c1`, the “% Inhibition @ 10 uM” value is on record as -0.856%. Then `Cc1nnc(S)n1Cc1ccccc1`, with -3.04%; and `COC(=O)c1ccc(C2C3=C(O)CC(c4ccccc4OC)CC3=NC(C)=C2C(=O)OC(C)C)cc1` (stereo not shown), with 2.25%. The figure for `Cc1ccc2nc3c(cc(C(=O)NC4CCCC4)c(=N)n3CCCn3ccnc3)c(=O)n2c1` is 1.52%; for `CCc1ccc2oc(C(=O)NC3CCS(=O)(=O)C3)cc(=O)c2c1` (stereo not shown) it is 1.9%. The figure for `COc1cccc(CN2CCN(C(=O)C(c3ccccc3)c3ccccc3)CC2)c1` is -14.7%; for `CCOc1ccc(N2CC(C(=O)Nc3ccccc3C(C)C)CC2=O)cc1` (stereo not shown) it is 0.583%. Turning to `CCn1c(=N)n(CCOc2ccc(OC)cc2)c2ccccc21`, the “% Inhibition @ 10 uM” value is reported as 0.528%. With `CCOC(=O)c1ccc(NS(=O)(=O)c2ccc(-c3ccccc3)cc2)cc1`, the “% Inhibition @ 10 uM” value was -2.7%. Then `Cn1c(NC(=O)c2cc(-c3ccc(Br)cc3)nc3ccccc23)cc(=O)n(C)c1=O`, with -1.36%; and `O=S(=O)(c1ccc2c(c1)OCCO2)N1CCCCC1`, with 3.83%. The figure for `Cc1cc(=O)n(Cc2ccccc2F)c2c1c(C)nn2-c1cccc(F)c1` is 2.48%; for `COC(=O)c1cccc2[nH]ncc12` it is -1.75%. Take `N#Cc1c(N2C(=O)CC(c3ccccc3F)C3=C2CCCC3=O)sc2c1CCCC2` (stereo not shown): the “% Inhibition @ 10 uM” value is reported as -3.34%. On to `CCOCC(=O)Nc1cccc2ccccc12`, for which the “% Inhibition @ 10 uM” value was -4.15%. Then `COc1cc(-c2nnc3n(Cc4ccccc4Cl)c(=O)c4ccccc4n23)ccc1O`, with -1.72%; and `COc1ccccc1-c1cc(C(=O)N2CCN(Cc3ccccc3)CC2)[nH]n1`, with -1.3%. With `c1ccc2oc(-c3nn4c(Cn5cnc6ccccc65)nnc4s3)cc2c1`, the “% Inhibition @ 10 uM” value was 4.47%. Then `O=S(=O)(c1ccc(-c2csc(Nc3ccc(Cl)cc3)n2)cc1)N1CCOCC1`, with -1.28%; and `N#CCc1nc(-c2ccc([N+](=O)[O-])cc2)cs1`, with -6.82%; and `COc1ccc(C2C(C(=O)c3ccccc3)=C(O)C(=O)N2c2nc3ccccc3s2)cc1` (stereo not shown), with -3.75%.

For `CC(CNC(=O)Cn1ncn2nc(-c3cccs3)cc2c1=O)c1ccccc1` (stereo not shown), the “% Inhibition @ 10 uM” value is given as -2.85%.

Turning to `Oc1nncn2c1cc1sccc12`, the “% Inhibition @ 10 uM” value worked out at 48.7%.

As to `COc1cccc(CNCc2cccc(Br)c2)c1OC`, the “% Inhibition @ 10 uM” value is given as -4.16%. Regarding `CCOC(=O)C(Cc1ccc(O)cc1)NC(C)=O` (stereo not shown), the “% Inhibition @ 10 uM” value was -1.77%.

Take `O=C(NCCNC(=O)C1c2ccccc2Oc2ccccc21)C1c2ccccc2Oc2ccccc21`: the “% Inhibition @ 10 uM” value was -2.64%. On to `COc1c(Cl)cc(/C=C2\SC(N)=NC2=O)cc1Cl`, for which the “% Inhibition @ 10 uM” value worked out at 2.26%. For the molecule `CC(=O)/C=C/c1oc2ccccc2c1-c1ccc(C)o1`, the “% Inhibition @ 10 uM” value was found to be 0.147%. Then `Cc1cc(=O)cc(C)n1-c1ccccc1O`, with 7.82%; and `Cc1cccc(C)c1-n1nnnc1C1(Nc2ccc(F)c(Cl)c2)CCCCC1`, with -3.98%; and `CS(=O)(=O)N1CCC(C(=O)Nc2cccc(C(F)(F)F)c2)CC1`, with -0.992%. Then `Cc1cc(Cl)cc(Cl)c1OCC(=O)Nc1cccnc1`, with 1.37%; and `Cc1cc(C)c2c(n1)nn1c(C)c(CCC(=O)NCc3ccc4c(c3)OCO4)c(C)nc21`, with -4.24%. The figure for `COc1ccc(Br)cc1CNC(=O)c1ccc2c(c1)ncn2C1CCCC1` is 3.66%; for `COC(=O)c1ccc(COc2ccc3c(c2)O/C(=C\c2ccc(OC)cc2)C3=O)cc1` it is -3.63%. On to `CCCc1cc(O)n2nc(NCc3cccs3)nc2n1`, for which the “% Inhibition @ 10 uM” value was -0.671%. The figure for `COc1ccc(-c2[nH]nc3c2C(c2ccc(C(C)C)cc2)NC3=O)cc1` (stereo not shown) is -3.35%; for `COC(=O)c1c(C)nn(-c2ccc(C)cc2)c1N` it is 1.63%; for `CC(=O)c1c(N)nc(-c2ccccc2)nc1S` it is -5.51%. Regarding `Cc1nc2ccccc2cc1C(=O)Nc1ccc(F)cc1`, the “% Inhibition @ 10 uM” value is listed as 3.49%. `NC(=O)c1c(NC(=O)c2ccccc2F)sc2c1CCCCCC2`: the “% Inhibition @ 10 uM” value is 24.9%. Then `Cc1ccc(CSCCNC(=O)c2ccccc2C)cc1`, with 3.62%.

Turning to `O=C(CSCC(=O)c1ccc2c(c1)Cc1ccccc1-2)Nc1ccccc1`, the “% Inhibition @ 10 uM” value was -1.96%. Then `O=C(COc1ccccc1Cl)Nc1ncc(Cc2cccc(C(F)(F)F)c2)s1`, with -1.26%. Then `O=C(NCCO)/C(=C/c1ccc(-c2ccc([N+](=O)[O-])cc2)o1)NC(=O)c1ccccc1`, with -2.59%. The figure for `COc1cc(-c2cc(C(=O)O)c3c(OC)c(OC)c(OC)cc3n2)ccc1O` is 4.23%; for `COc1nc(NCCCN2CCOCC2)nc(N2CCCCCC2)n1` it is -9.29%. Take `COc1ccc(C(=O)Nc2nc(C34CC5CC(CC(C5)C3)C4)c(C)s2)cc1`: the “% Inhibition @ 10 uM” value was -1.93%. Take `Nc1ccc(-c2nc3cc(-c4ccc5[nH]c(-c6ccc(N)cc6)nc5c4)ccc3[nH]2)cc1`: the “% Inhibition @ 10 uM” value was determined as 18.3%. With `COCCCNCc1c(C(=O)O)n(Cc2ccccc2)c2cc(OC)ccc12`, the “% Inhibition @ 10 uM” value is 1.53%.

For `O=C1CCCCC1C(Nc1ccc2ncccc2c1)c1ccc(F)cc1` (stereo not shown), the “% Inhibition @ 10 uM” value stood at 8.53%.

These data come from paper PMC6919601, “Identification of Plasmodium dipeptidyl aminopeptidase allosteric inhibitors by high throughput screening” (PLoS ONE, 2019).
